Test results taken from the supplement of paper PMC8512760.
Where a name gives a salt, the structure may show the parent alone. The list shows a part of the results. Single values are uncertain, as repeats are few or missing.

Test system: HCC-1143
Test: cell viability relative to vehicle (% of vehicle); basal-like triple-negative breast cancer lines; higher = less cytotoxic
Details: 10 µM; 72 h
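Also: stably firefly luciferase-GFP labeled cells in 96-well plates, viability read as luciferase photon flux after d-luciferin addition, treated wells normalized to vehicle wells, single-dose high-throughput screen.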

Row | Structure (SMILES) | cell viability
1 | CCCCCCCCOc1ccccc1C(=O)Nc1ccc(C(=O)OCC[N+](C)(CC)CC)cc1.[Br-] [Otilonium Bromide] | 78.1
2 | CCC(=O)NCCC1CCc2ccc3c(c21)CCO3 (stereo unspecified) [Ramelteon] | 88.3
3 | O=C(C=Cc1ccc(O)c(O)c1)OC1CC(O)(C(=O)O)CC(O)C1O (stereo unspecified) [Chlorogenic acid] | 87.6
4 | Cc1ccsc1C(=CCCN1CCC[C@@H](C(=O)O)C1)c1sccc1C [Tiagabine hydrochloride] | 71.2
5 | CCOC(=O)CCC(=O)OC1C(OC2C(C)C(OC3CC(C)(OC)C(O)C(C)O3)C(C)C(=O)OC(CC)C(C)(O)C(O)C(C)C(=O)C(C)CC2(C)O)OC(C)CC1N(C)C (stereo unspecified) [Erythromycin Ethylsuccinate] | 90.6
6 | CCCCNc1ccc(C(=O)OCCN(C)C)cc1.Cl [Tetracaine HCl] | 88.5
7 | CCOC(=O)n1ccn(C)c1=S [Carbimazole] | 72.4
8 | CCN(CC)C(=O)C1(c2ccccc2)CC1CN.Cl (stereo unspecified) [Milnacipran HCl] | 96
9 | CCc1ccc(CCOc2ccc(CC3SC(=O)NC3=O)cc2)nc1 (stereo unspecified) [Pioglitazone] | 85
10 | Cl.Fc1ccc(C2CCNCC2COc2ccc3c(c2)OCO3)cc1 (stereo unspecified) [Paroxetine HCl] | 64.3
11 | CCOC(=O)c1ccc(OC(=O)CCCCCN=C(N)N)cc1.CS(=O)(=O)O [Gabexate mesylate] | 108
12 | COC1=CC(=O)C[C@@H](C)[C@]12Oc1c(Cl)c(OC)cc(OC)c1C2=O [Griseofulvin] | 108
13 | COc1ccc(-c2ccc3cc(C(=O)O)ccc3c2)cc1C12CC3CC(CC(C3)C1)C2 [Adapalene sodium salt] | 104
14 | Br.COc1ccc2c3c1O[C@H]1C[C@@H](O)C=C[C@@]31CCN(C)C2 [Galanthamine HBr] | 65.2
15 | Cc1cnc(C(=O)O)c[n+]1[O-] [Acipimox] | 82.4
16 | CC1(COc2ccc3c(c2)ncn3-c2ccc3cccc(N4CCC(N)CC4)c3n2)COC1 | 43.1
17 | Cc1cc(C)cc(OCC2CNC(=O)O2)c1 (stereo unspecified) [Metaxalone] | 89.3
18 | CC12CCC(=O)C=C1CCC1C2C(O)CC2(C)C1CCC2(O)C(=O)CO (stereo unspecified) [Hydrocortisone] | 98
19 | CC1=C(CC(=O)O)c2cc(F)ccc2C1=Cc1ccc(S(C)=O)cc1 (stereo unspecified) [Sulindac] | 103
20 | CCC1OC(=O)C(C)C(OC2CC(C)(OC)C(O)C(C)O2)C(C)C(OC2OC(C)CC(N(C)C)C2O)C(C)(OC)CC(C)C(=O)C(C)C(O)C1(C)O (stereo unspecified) [Clarithromycin] | 92.6
21 | CCOc1cc2ncc(C#N)c(Nc3ccc(OCc4ccccn4)c(Cl)c3)c2cc1NC(=O)C=CCN(C)C [Neratinib (HKI-272)] | 28.4
22 | CCOC(=O)C(CCc1ccccc1)NC(C)C(=O)N1Cc2ccccc2CC1C(=O)O.Cl (stereo unspecified) [Quinapril HCl] | 102
23 | NC(=O)c1ncn(C2OC(CO)C(O)C2O)n1 (stereo unspecified) [Ribavirin] | 107
24 | CC(=O)Oc1cc2c(s1)CCN(C(C(=O)C1CC1)c1ccccc1F)C2 (stereo unspecified) [Prasugrel] | 87.9
25 | CC(CN1c2ccccc2Sc2ccccc21)N(C)C (stereo unspecified) [Promethazine HCl] | 123
26 | CCCCCCCCCCCCCCCC(=O)OCC=C(C)C=CC=C(C)C=CC1=C(C)CCCC1(C)C [Retinyl (Vitamin A) Palmitate] | 70.2
